Assay results taken from the supplement of paper PMC3334620.
Whole data set: some 33,000 sequences, median “E-score (-0.5 to 0.5)” near -0.036, cut for the highest 2% near 0.37. Some of the results follow.

Molecular target: T1, Yer064c (UniProt P40041)
T1 sequence: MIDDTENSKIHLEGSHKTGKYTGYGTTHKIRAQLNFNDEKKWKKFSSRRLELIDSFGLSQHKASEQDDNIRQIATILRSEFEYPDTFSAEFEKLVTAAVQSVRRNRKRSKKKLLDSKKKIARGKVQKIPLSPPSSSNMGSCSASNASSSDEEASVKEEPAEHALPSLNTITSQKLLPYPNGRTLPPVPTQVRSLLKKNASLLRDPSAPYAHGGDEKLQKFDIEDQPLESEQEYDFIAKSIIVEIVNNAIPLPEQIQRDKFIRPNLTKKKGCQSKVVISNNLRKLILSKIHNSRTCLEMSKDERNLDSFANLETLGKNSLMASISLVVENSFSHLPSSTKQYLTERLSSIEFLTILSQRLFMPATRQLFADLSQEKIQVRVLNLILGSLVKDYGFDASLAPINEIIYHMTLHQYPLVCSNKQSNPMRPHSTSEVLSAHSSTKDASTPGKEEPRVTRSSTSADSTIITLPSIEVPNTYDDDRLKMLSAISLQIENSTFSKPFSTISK
Assay: PBM E-score (8-mer binding enrichment) (E-score (-0.5 to 0.5)); higher = stronger / more preferred TF binding; most listed sequences are background and not binding sites
Conditions: protein concentration: 200 nM; construct: GST-full length
Summary of the method: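 Bound GST-tagged yeast transcription factors, applied at about 100-200 nM to double-stranded universal all-10-mer Agilent arrays, were detected with fluorescent anti-GST. Scans were normalised with masliner. A modified Wilcoxon-Mann-Whitney statistic, the E-score, was assigned to each ungapped eight-base word pooled with its reverse complement by the Universal PBM Analysis Suite.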

Sequence | PBM E-score
AAAGTATA | 0.0308
CCGTACGG | -0.224
ATAACGAA | 0.115
CAAGGTTA | 0.0273
ACCTCCGC | -0.183
CAGACCAA | 0.102
CAAGCACA | -0.031
AATAATTG | -0.0748
GTCGTGAA | -0.0162
TGCCAGCA | -0.0413
GCGGTACC | -0.0312
GAATTAGC | -0.216
AACACACA | 0.197
TGCGCAAA | -0.0488
GAGATCAC | 0.0494
AAAGTAAT | 0.152
AGAAGTAC | -0.1
TCACAGCA | 0.018
CCGATAGA | -0.0968
CAACAACG | 0.141
CCTTTAGA | -0.115
CAGTAAAA | -0.0284
ACGGTATC | -0.154
ATCGTGAA | 0.0367
CCGTGGTA | 0.0118

Sequence | PBM E-score
CCAGAAAA | 0.0439
CTAATGAC | 0.22
AACGGCCC | -0.177
CATCATAA | 0.0722
GCAATAGC | -0.253
CTTCTTCA | -0.0634
GGTCGACC | -0.0461
CGCAATGA | 0.208
ATCAGTAA | 0.0818
CATGCCCG | -0.0742
GCAAAATA | 0.0652
TAAGAATA | -0.0834
ATGCGTCG | -0.166
ACAGAGTG | 0.0565
AGAATAAA | 0.114
GACGGCTA | -0.172
AGGGACAT | -0.183
AATGATAT | 0.0776
GTGCCTAA | -0.163
CTTACTGA | 0.0728
CGTTATGC | -0.195
CGGCCTAC | -0.159
ACTTTGTA | 0.186
CCCGATAG | -0.158
ATCTACAC | 0.117

Sequence | PBM E-score
CAATTCCA | -0.297
CCCCTACC | -0.124
ACAAAAAG | 0.0753
ATGCTGAC | 0.172
GAAGTAGA | -0.0301
ACAAGCAT | -0.175
AGCCACAG | -0.0759
CGATGCTC | -0.245
TCACTGCA | 0.216
TAAACGGA | -0.0658
CGATACGA | 0.0406
ACTTTTAT | 0.00893
GGGTAATA | 0.00782
ATCATTTG | 0.208
AATAAGAT | 0.0112
TAGCGTGA | 0.194
TGGGTACA | 0.0823
CGGCTCGC | -0.149
TTAGCGAA | -0.0547
CATTGAAG | 0.0114
CAGCAAAC | 0.0396
GATATGTA | -0.0516
CCCTACTA | -0.133
CCGACCAC | 0.0305
AAATTACT | 0.118

Sequence | PBM E-score
CTGCTAGC | -0.08
CTGAATTA | 0.0399
AGCGCAAT | 0.0807
AACTCTGA | 0.186
AGATCTTG | -0.125
ACTAGGAC | 0.088
GAAAGTGA | 0.161
AACCAGAA | 0.118
AGGCATAA | -0.109
CTGCACTA | -0.103
CAATATAG | 0.0715
CAGAAAGC | -0.00397
ACGTCGAA | -0.00381
GGTTTAAA | 0.123
AAGTCCGT | -0.0735
GTGCACAA | -0.106
ATGGTCGG | -0.0135
AGTACCGC | -0.217
ATTGTCTG | 0.0875
CTGGGGAA | -0.114
TAATTGTA | 0.191
AGAACCTC | -0.301
CCGTAGCG | -0.135
ATCATCAC | 0.349
ACTTCGCA | 0.025

Sequence | PBM E-score
ACACCGTA | -0.131
CAGGTAGC | -0.0547
CCTCATCC | -0.323
CTACGGGC | -0.419
TCAAGTGA | 0.235
TGGGAAAA | -0.21
CAATGCGC | -0.139
TCTCAGAA | 0.178
AAGCATTA | 0.0134
AATATTGA | 0.239
CCCTACCC | -0.156
GACGTGCA | -0.077
AGGCCTCG | -0.184
AATATTCG | -0.197
AGATGACT | 0.487
GCAAACGC | -0.259
CGACGCCG | 0.0399
AAAAGAGG | -0.0922
ATGCTCCA | -0.216
GAATTCGC | -0.0486
AAGGACGA | -0.0247
GACGTATC | -0.332
CAATCTCG | -0.0069
ACCGGGCC | -0.125
ACCGACAC | 0.114

Sequence | PBM E-score
AGGTATAC | 0.0838
GCTTTGAC | 0.0924
TAGTAGGA | 0.0548
TCCAACAA | 0.11
ACTAACAA | 0.237
CTCCATTA | -0.127
CGTGCCAG | -0.123
AAGGTGAT | 0.176
AGGCAGCA | -0.02
CCTTAGAC | 0.063
ACCACAAA | 0.0622
CCGACGAC | 0.109
AATATAAT | 0.0228
ATCGTCCC | -0.18
AAGCGTCG | -0.218
GTTGCCGA | -0.0746
AACCTCGC | -0.0768
CCCTCCAG | -0.413
GACCGAGA | 0.00247
CGTCTTCC | -0.0994
GCCATCAA | -0.0742
TAACTTGA | 0.298
CCTACGCA | -0.0459
AGCCTACT | -0.0484
AGTCGCTC | 0.382

Sequence | PBM E-score
ATCTGAAC | 0.0354
ACTTCTGG | -0.123
CAGCATTC | -0.155
CATGACAC | 0.11
CGATGCTA | -0.124
CGTGCGCA | -0.144
CAGGGTGA | 0.123
CCCTAAGC | -0.311
CCAACATA | 0.121
CAAGTCTG | -0.0223
GTTCGGTA | 0.108
TGGCCGAA | -0.0951
CTCTCATA | 0.187
CGTCTACA | 0.00611
AACGGATG | -0.0159
GTTACATA | -0.0777
ACTTTGTG | 0.137
ACGCGGGA | -0.198
GCCTGCAC | -0.167
CGCCACGA | -0.0758
ACCAAATA | 0.041
ACGATGGA | 0.073
AGGGGATG | -0.153
AAGTAGGC | -0.248
AGATGCCG | -0.214

Sequence | PBM E-score
CGGCCCAA | -0.293
CGGAACCA | 0.103
ATTGATGA | 0.312
TTAGTAAA | 0.13
ACCGCGAG | 0.0163
GACTAGCC | 0.322
TCTATAAA | 0.101
CCCATGCA | -0.0198
ACAACTAT | 0.0891
CATCTTAC | 0.0433
AGCATAGG | -0.197
ACACTAGA | 0.0141
CGGATATC | -0.0492
ATAGTCGA | 0.249
TACTTTAA | -0.0478
ACAAGGGG | -0.186
ACCTATCG | -0.16
TTCACGAA | 0.03
ATGGCTTA | 0.167
ATCAAGAT | 0.157
GGCCGATA | -0.159
AGGGCTTC | -0.236
GCCATTAC | -0.216
CCAATATA | -0.0791
CATTCCGG | -0.233

Sequence | PBM E-score
CAGGCCCC | -0.374
GCTATAGC | -0.246
CCCCAGTC | 0.0336
CAGCAATA | -0.0433
AAGCTAGG | 0.0152
GCCCTTTA | -0.229
GCTTGTTA | -0.186
ACCACCAT | -0.0134
AATAAGCT | -0.0669
GATTTAAA | 0.224
CGTCTTGC | -0.24
TCGGGAGA | 0.136
AGAATCCG | 0.0213
AATCTTCT | 0.201
CGACTAGC | 0.297
ATGCCCCA | -0.00807
CTGTCTTA | -0.0858
AGACACGG | 0.118
CAAGGAGG | -0.308
